Reference: patent US20160038588A1, “Myostatin Antagonism in Human Subjects” (AMGEN INC., priority 2013, published 2016)

Target: T1, myostatin (Homo sapiens, UniProt O14793)
T1 construct: To produce mature myostatin, the pooled promyostatin was enzymatically cleaved between the propeptide and mature myostatin C terminal; made in house
T1 sequence (O14793 267-375): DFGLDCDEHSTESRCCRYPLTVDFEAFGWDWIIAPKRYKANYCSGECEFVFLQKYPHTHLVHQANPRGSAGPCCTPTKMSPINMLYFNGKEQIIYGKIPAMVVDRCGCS
Experiment: C2C12 pMARE-luc cell based myostatin activity assay
Conditions: affinity matured peptibodies; a range of values is given
Source text: The antagonists including the binding agents described herein can be tested for their ability to bind myostatin and inhibit or block myostatin activity. Any number of assays or animal tests may be used to determine the ability of the agent to inhibit or block myostatin activity. Several assays used for characterizing the peptides and peptibodies of the present invention are described in the Examples below. One assay is the C2C12 pMARE-luc assay which makes use of a myostatin-responsive cell line (C2C12 myoblasts) transfected with a luciferase reporter vector containing myostatin/activin response elements (MARE). Exemplary peptibodies are assayed by pre-incubating a series of peptibody dilutions with myostatin, and then exposing the cells to the incubation mixture. The resulting luciferase activity is determined, and a titration curve is generated from the series of peptibody dilutions. The IC50 (the concentration of peptibody to achieve 50% inhibition of myostatin activity as measured by luciferase activity) was then determined. A second assay described below is a BIAcore® assay to determine the kinetic parameters ka (association rate constant), kd (dissociation rate constant), and KD (dissociation equilibrium constant) for the myostatin binding agents and other antagonists such as antibodies capable of binding myostatin and its receptor. Lower dissociation equilibrium constants (KD, expressed in nM) indicated a greater affinity of the peptibody for myostatin. […] These assays are described in Example 3.
C2C12 Cell Based Myostatin Activity Assay
A myostatin-responsive reporter cell line was generated by transfection of C2C12 myoblast cells (ATCC No: CRL-1772) with a pMARE-luc construct. The pMARE-luc construct was made by cloning twelve repeats of the CAGA sequence, representing the myostatin/activin response elements (Dennler et al. EMBO 17: 3091-3100 (1998)) into a pLuc-MCS reporter vector (Stratagene cat #219087) upstream of the TATA box. The myoblast C2C12 cells naturally express myostatin/activin receptors on its cell surface. When myostatin binds the cell receptors, the Smad pathway is activated, and phosphorylated Smad binds to the response element (Macias-Silva et al. Cell 87:1215 (1996)), resulting in the expression of the luciferase gene. Luciferase activity is then measured using a commercial luciferase reporter assay kit (cat # E4550, Promega, Madison, Wis.) according to manufacturer's protocol. A stable line of C2C12 cells that had been transfected with pMARE-luc (C2C12/pMARE clone #44) was used to measure myostatin activity according to the following procedure.
Equal numbers of the reporter cells (C2C12/pMARE clone #44) were plated into 96 well cultures. A first round screening using two dilutions of peptibodies was performed with the myostatin concentration fixed at 4 nM. Recombinant mature myostatin was preincubated for 2 hours at room temperature with peptibodies at 40 nM and 400 nM respectively. The reporter cell culture was treated with the myostatin with or without peptibodies for six hours. Myostatin activity was measured by determining the luciferase activity in the treated cultures. This assay was used to initially identify peptibody hits that inhibited the myostatin signaling activity in the reporter assay. Subsequently, a nine point titration curve was generated with the myostatin concentration fixed at 4 nM. The myostatin was preincubated with each of the following nine concentrations of peptibodies: […], 0.4 nM, 4 nM, 20 nM, 40 nM, 200 nM, 400 nM, 2 uM and 4 uM for two hours before adding the mixture to the reporter cell culture. The IC50 values were for a number of exemplary peptibodies are provided in Tables III and for affinity matured peptibodies, in Table VIII.

B1: mL2-7 (protein)
chain: MGAQRMEMLESLFELLKEIVPMSKAGLEGGGGG[here human IgG1 Fc without letters]
IC50: 90.2 nM

B2: mL2-9 (protein)
chain: B1 chain with R5Q, M8L, E10D, M22K, K24Q, A25P, G26A
IC50: 106 nM

B3: mL20-4 (protein)
chain: [here human IgG1 Fc without letters]GGGGGAQMQHDMSMLYGLVELLESLGHQILE
IC50: 160 nM

B4: mL15-7 (protein)
chain: [here human IgG1 Fc without letters]GGGGGAQQVDSLQQVLLWLEHKLALGPQVLE
IC50: 32.8 nM

B7: mTN8-19-7(-LE) (protein)
chain: [here human IgG1 Fc without letters]GGGGGAQLADHGQCIRWPWMCPPEGWE
IC50: 1.75 to 2.68 nM

B11: mL15-9 (protein)
chain: [here human IgG1 Fc without letters]GGGGGAQQIEMLESLLDLLRDMVPMSNAFLE
IC50: 354 nM

B12: mL20-2 (protein)
chain: [here human IgG1 Fc without letters]GGGGGAQTQRDMSMLDGLLEVLDQLRQQRLE
IC50: 123 nM

B13: mL20-3 (protein)
chain: [here human IgG1 Fc without letters]GGGGGAQTSRDMSLLWELLEELDRLGHQRLE
IC50: 158 nM

B14: mTN8Con6-3 (protein)
chain: [here human IgG1 Fc without letters]GGGGGAQWTGWYQCYGGHLWCYDLRRKLE
IC50: 86.8 nM

B17: mTN8Con6-5 (protein)
chain: [here human IgG1 Fc without letters]GGGGGAQESRWYPCYEGHLWCFDLTETLE
IC50: 2380 nM

More lines, now with the values ahead:

IC50: 0.883 to 1.25 nM
B5: 2xmTN8-19-21(-LE) (protein)
chain: [here human IgG1 Fc without letters]GGGGGAQSEYQGLCTRWPWMCPPQGWKGSGSATGGSGGGASSGSGSATGSEYQGLCTRWPWMCPPQGWK

IC50: 1.03 to 1.12 nM
B6: 2xmTN8-19-33(-LE) (protein)
chain: [here human IgG1 Fc without letters]GGGGGAQPESQGHCTRWPWMCPPQGWGGSGSATGGSGGGASSGSGSATGPESQGHCTRWPWMCPPQGWG

IC50: 1.08 to 1.22 nM
B8: 2xmTN8-19-7(-LE) (protein)
chain: [here human IgG1 Fc without letters]GGGGGAQLADHGQCIRWPWMCPPEGWEGSGSATGGSGGGASSGSGSATGLADHGQCIRWPWMCPPEGWE

IC50: 2.49 nM
B9: mTN8-19-21(-LE) (protein)
chain: [here human IgG1 Fc without letters]GGGGGAQSEYQGLCTRWPWMCPPQGWK

IC50: 1.81 nM
B10: mTN8-19-33(-LE) (protein)
chain: [here human IgG1 Fc without letters]GGGGGAQPESQGHCTRWPWMCPPQGWG

IC50: 0.828 to 1.43 nM
B15: 2xmTN8-19-21 (protein)
chain: [here human IgG1 Fc without letters]GGGGGAQSEYQGLCTRWPWMCPPQGWKLEGSGSATGGSGSTASSGSGSATGSEYQGLCTRWPWMCPPQGWKLE

IC50: 0.994 to 1.22 nM
B16: 2xmTN8-19-22 (protein)
chain: [here human IgG1 Fc without letters]GGGGGAQTFSQGHCTRWPWMCPPQGWGLEGSGSATGGSGSTASSGSGSATGTFSQGHCTRWPWMCPPQGWGLE

Changes are numbered by the printed parent chain. One block for each molecule: values may come before it.
